From PMC9911399, “Two distinct binding modes provide the RNA-binding protein RbFox with extraordinary sequence specificity”
Positions count from the first letter of the chain named. Some of the results follow.

T1: RBFOX1 RRM (Homo sapiens, UniProt Q9NWB1 109-208)
T1 sequence: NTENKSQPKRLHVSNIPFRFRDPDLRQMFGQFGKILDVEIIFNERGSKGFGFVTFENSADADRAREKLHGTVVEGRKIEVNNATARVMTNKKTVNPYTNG

B1: UCAGCGG (DNA:RNA)
RNA: GGGAGACCGGAAUUCAGAUUGUCCUCAGCGGUUAAAUCCCGUCGUAGCCACCA
DNA 1: CAATCTGAATTCCGGTCTCCC
DNA 2: TGGTGGCTACGACGGGATT
B2: UUUGCCU (DNA:RNA)
RNA: B1 RNA with C26U, A27U, G30C, G31U
DNA 1: CAATCTGAATTCCGGTCTCCC
DNA 2: TGGTGGCTACGACGGGATT
B3: GGAACUC (DNA:RNA)
RNA: B1 RNA with U25G, C26G, G28A, G30U, G31C
DNA 1: CAATCTGAATTCCGGTCTCCC
DNA 2: TGGTGGCTACGACGGGATT
B4: GUUAGGC (DNA:RNA)
RNA: B1 RNA with U25G, C26U, A27U, G28A, C29G, G31C
DNA 1: CAATCTGAATTCCGGTCTCCC
DNA 2: TGGTGGCTACGACGGGATT
B5: AUCCCGG (DNA:RNA)
RNA: B1 RNA with U25A, C26U, A27C, G28C
DNA 1: CAATCTGAATTCCGGTCTCCC
DNA 2: TGGTGGCTACGACGGGATT
B6: UGGUGCU (DNA:RNA)
RNA: B1 RNA with C26G, A27G, G28U, C29G, G30C, G31U
DNA 1: CAATCTGAATTCCGGTCTCCC
DNA 2: TGGTGGCTACGACGGGATT
B7: GGGCCGC (DNA:RNA)
RNA: B1 RNA with U25G, C26G, A27G, G28C, G31C
DNA 1: CAATCTGAATTCCGGTCTCCC
DNA 2: TGGTGGCTACGACGGGATT
B8: CCAUCCG (DNA:RNA)
RNA: B1 RNA with U25C, G28U, G30C
DNA 1: CAATCTGAATTCCGGTCTCCC
DNA 2: TGGTGGCTACGACGGGATT
B9: CGAGGGG (DNA:RNA)
RNA: B1 RNA with U25C, C26G, C29G
DNA 1: CAATCTGAATTCCGGTCTCCC
DNA 2: TGGTGGCTACGACGGGATT
B10: ACAUGGU (DNA:RNA)
RNA: B1 RNA with U25A, G28U, C29G, G31U
DNA 1: CAATCTGAATTCCGGTCTCCC
DNA 2: TGGTGGCTACGACGGGATT
B11: AUGAGUG (DNA:RNA)
RNA: B1 RNA with U25A, C26U, A27G, G28A, C29G, G30U
DNA 1: CAATCTGAATTCCGGTCTCCC
DNA 2: TGGTGGCTACGACGGGATT
B12: CUGACUG (DNA:RNA)
RNA: B1 RNA with U25C, C26U, A27G, G28A, G30U
DNA 1: CAATCTGAATTCCGGTCTCCC
DNA 2: TGGTGGCTACGACGGGATT
B13: CCCAGCU (DNA:RNA)
RNA: B1 RNA with U25C, A27C, G28A, C29G, G30C, G31U
DNA 1: CAATCTGAATTCCGGTCTCCC
DNA 2: TGGTGGCTACGACGGGATT
B14: CCUGGUG (DNA:RNA)
RNA: B1 RNA with U25C, A27U, C29G, G30U
DNA 1: CAATCTGAATTCCGGTCTCCC
DNA 2: TGGTGGCTACGACGGGATT
B15: GUAUGGC (DNA:RNA)
RNA: B1 RNA with U25G, C26U, G28U, C29G, G31C
DNA 1: CAATCTGAATTCCGGTCTCCC
DNA 2: TGGTGGCTACGACGGGATT
B16: GCAAAUC (DNA:RNA)
RNA: B1 RNA with U25G, G28A, C29A, G30U, G31C
DNA 1: CAATCTGAATTCCGGTCTCCC
DNA 2: TGGTGGCTACGACGGGATT
B17: CAAAAGG (DNA:RNA)
RNA: B1 RNA with U25C, C26A, G28A, C29A
DNA 1: CAATCTGAATTCCGGTCTCCC
DNA 2: TGGTGGCTACGACGGGATT
B18: AAUUGGG (DNA:RNA)
RNA: B1 RNA with U25A, C26A, A27U, G28U, C29G
DNA 1: CAATCTGAATTCCGGTCTCCC
DNA 2: TGGTGGCTACGACGGGATT
B19: UUGCGCC (DNA:RNA)
RNA: B1 RNA with C26U, A27G, G28C, C29G, G30C, G31C
DNA 1: CAATCTGAATTCCGGTCTCCC
DNA 2: TGGTGGCTACGACGGGATT
B20: GUCUCAA (DNA:RNA)
RNA: B1 RNA with U25G, C26U, A27C, G28U, G30A, G31A
DNA 1: CAATCTGAATTCCGGTCTCCC
DNA 2: TGGTGGCTACGACGGGATT
B21: AGACUGU (DNA:RNA)
RNA: B1 RNA with U25A, C26G, G28C, C29U, G31U
DNA 1: CAATCTGAATTCCGGTCTCCC
DNA 2: TGGTGGCTACGACGGGATT
B22: AACAUAU (DNA:RNA)
RNA: GGGAGACCGGAAUUCAGAUUGUCCAACAUAUUUAAAUCCCGUCGUAGCCACCA
DNA 1: CAATCTGAATTCCGGTCTCCC
DNA 2: TGGTGGCTACGACGGGATT
B23: GACUCUA (DNA:RNA)
RNA: B22 RNA with A25G, A28U, U29C, A30U, U31A
DNA 1: CAATCTGAATTCCGGTCTCCC
DNA 2: TGGTGGCTACGACGGGATT
B24: ACAGACA (DNA:RNA)
RNA: B1 RNA with U25A, C29A, G30C, G31A
DNA 1: CAATCTGAATTCCGGTCTCCC
DNA 2: TGGTGGCTACGACGGGATT
B25: CCGGACG (DNA:RNA)
RNA: B1 RNA with U25C, A27G, C29A, G30C
DNA 1: CAATCTGAATTCCGGTCTCCC
DNA 2: TGGTGGCTACGACGGGATT
B26: UCGUUAA (DNA:RNA)
RNA: B22 RNA with A25U, A26C, C27G, A28U, U31A
DNA 1: CAATCTGAATTCCGGTCTCCC
DNA 2: TGGTGGCTACGACGGGATT
B27: GUGCUGA (DNA:RNA)
RNA: B22 RNA with A25G, A26U, C27G, A28C, A30G, U31A
DNA 1: CAATCTGAATTCCGGTCTCCC
DNA 2: TGGTGGCTACGACGGGATT
B28: GGAUAGC (DNA:RNA)
RNA: B1 RNA with U25G, C26G, G28U, C29A, G31C
DNA 1: CAATCTGAATTCCGGTCTCCC
DNA 2: TGGTGGCTACGACGGGATT
B29: GAAGGAG (DNA:RNA)
RNA: B1 RNA with U25G, C26A, C29G, G30A
DNA 1: CAATCTGAATTCCGGTCTCCC
DNA 2: TGGTGGCTACGACGGGATT
B30: CAAAUCC (DNA:RNA)
RNA: B22 RNA with A25C, C27A, A30C, U31C
DNA 1: CAATCTGAATTCCGGTCTCCC
DNA 2: TGGTGGCTACGACGGGATT
B31: UCUAUCC (DNA:RNA)
RNA: B22 RNA with A25U, A26C, C27U, A30C, U31C
DNA 1: CAATCTGAATTCCGGTCTCCC
DNA 2: TGGTGGCTACGACGGGATT

The binders below were run against T1, RBFOX1 RRM (assay: EMSA; HiTS-Eq, 1 nM pool, 10 min; buffer printed only for the single-RNA assays: 10 mM Tris pH 7.5, 150 mM NaCl, 3.4 mM EDTA, 0.001% NP-40, 30 C). Details: tags: His6 N-terminal (pET28a); label: 5' 32P.
In short: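 These values rest on relative association constants, computed from read-count changes of each RNA species versus the control reaction and normalised to the cognate motif. Reads came from free RNA recovered by 8% native PAGE after purified RbFox RRM (wild type or mutant) at increasing concentrations was equilibrated for 10 min in 50 µL with 1 nM of a 5′-radiolabelled pool with 7 randomized nucleotides and DNA-annealed flanks.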
For B1, the binding signal was 0.0122 KA relative to UGCAUGU. With B2 the binding signal was 0.0166 KA relative to UGCAUGU. B3 was tested, and the binding signal was 0.0164 KA relative to UGCAUGU. In the case of B4, the binding signal is reported as 0.0106 KA relative to UGCAUGU. With B5 the binding signal was 0.00357 KA relative to UGCAUGU. For B6, the binding signal was 0.0292 KA relative to UGCAUGU. B7 was tested, and the binding signal was 0.0163 KA relative to UGCAUGU. For B8, the binding signal was 0.00435 KA relative to UGCAUGU. B9 was tested, and the binding signal was 0.00639 KA relative to UGCAUGU. B10 was tested, and the binding signal was 0.00766 KA relative to UGCAUGU. In the case of B11, the binding signal is reported as 0.0209 KA relative to UGCAUGU. B12 was tested, and the binding signal was 0.0302 KA relative to UGCAUGU. B13 was tested, and the binding signal was 0.0114 KA relative to UGCAUGU. With B14 the binding signal was 0.0199 KA relative to UGCAUGU. In the case of B15, the binding signal is reported as 0.0131 KA relative to UGCAUGU. With B16 the binding signal was 0.00254 KA relative to UGCAUGU. With B17 the binding signal was 0.00436 KA relative to UGCAUGU. B18 was tested, and the binding signal was 0.00804 KA relative to UGCAUGU. For B19, the binding signal was 0.012 KA relative to UGCAUGU. B20 was tested, and the binding signal was 0.00772 KA relative to UGCAUGU. With B21 the binding signal was 0.0147 KA relative to UGCAUGU. For B22, the binding signal was 0.00127 KA relative to UGCAUGU. B23 was tested, and the binding signal was 0.00483 KA relative to UGCAUGU. With B24 the binding signal was 0.00018 KA relative to UGCAUGU. For B25, the binding signal was 0.00547 KA relative to UGCAUGU. In the case of B26, the binding signal is reported as 0.00632 KA relative to UGCAUGU. In the case of B27, the binding signal is reported as 0.0323 KA relative to UGCAUGU. For B28, the binding signal was 0.014 KA relative to UGCAUGU. With B29 the binding signal was 0.00502 KA relative to UGCAUGU. For B30, the binding signal was 0.000273 KA relative to UGCAUGU. In the case of B31, the binding signal is reported as 0.00481 KA relative to UGCAUGU.
